# Assay results published in the supplement of paper PMC3334620.
# Whole data set: some 33,000 sequences, median “E-score (-0.5 to 0.5)” near -0.016, cut for the highest 2% near 0.31. The list shows a part of the results.
# Molecular target: Cst6 (UniProt P40535)
# Assay: PBM E-score (8-mer binding enrichment) (E-score (-0.5 to 0.5)); higher = stronger / more preferred TF binding; most listed sequences are background and not binding sites
# Details: protein concentration: 200 nM; construct: GST-DNA-binding domain
# Procedure: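 Universal 'all 10-mer' protein binding microarrays (Agilent AMADID 015681) probed with GST-tagged S. cerevisiae TFs (full-length or DBD) made by in vitro transcription/translation (PURExpress), about 100-200 nM. Bound TF was detected with fluorescent anti-GST. Each ungapped 8-mer (which stands for itself and its reverse complement) is scored by the PBM enrichment score (E-score), a modified Wilcoxon-Mann-Whitney statistic from -0.5 to +0.5, computed with the Universal PBM Analysis Suite. Scale: above 0.35 generally sequence-specific binding.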
row,Sequence,PBM E-score
1,CTCACAAG,-0.00284
2,GAGATCAA,0.16
3,AAGCTGAT,0.149
4,CCTATAGA,-0.102
5,CCCCGAAG,-0.0458
6,ATGTTTCA,0.0829
7,GAAGGGAC,-0.37
8,AAGACCAT,-0.0598
9,CCGGGACC,-0.235
10,GGATCAAA,0.112
11,AAAGACGA,0.163
12,GGATCGCC,-0.0588
13,GACAGGTA,-0.0506
14,AGGGAGAG,-0.306
15,CACAGCAC,-0.027
16,ACAAGTAC,-0.0561
17,GGCTACAC,-0.0907
18,AATTTTCG,0.0598
19,AGGACAAG,-0.193
20,CCTTGGTA,0.0148
21,AGGTAGGC,-0.276
22,AGCACTAA,-0.0481
23,CACGTCGA,-0.0449
24,CATTGAGG,-0.0774
25,CGGGATTC,-0.0734

row,Sequence,PBM E-score
1,AACGCTAA,-0.102
2,CTTTGGTC,0.0204
3,AGTTCTCC,-0.256
4,CTAAATCC,-0.0264
5,GCTTGTAA,0.0486
6,ATCCATGG,-0.138
7,CGCGATAA,0.0799
8,CAGATGGA,0.0301
9,ACTACACA,0.17
10,AACAGGTC,-0.136
11,ATGAAAAC,0.262
12,TGACAGAA,0.27
13,CCGATAAA,0.0173
14,CACAGACA,0.0402
15,CTCCTAAG,-0.125
16,GGGTGATA,-0.0342
17,AGGGGCCG,-0.237
18,ATGCATTG,0.0704
19,AAACTGGG,-0.199
20,CTATGCCC,-0.0845
21,ATTACGCA,0.398
22,CGAGGTCC,-0.296
23,AAACCTCT,-0.0254
24,ATTCCATG,-0.00135
25,GACCATCC,-0.121

row,Sequence,PBM E-score
1,GATATACA,0.0998
2,AGAGTCCG,-0.307
3,ACCTTGTC,-0.171
4,AGAGTTCC,-0.258
5,ACTCCGTG,0.0481
6,CCGCCATA,-0.00276
7,CATCTCCG,-0.00869
8,CCCACTCC,-0.334
9,AAGCCACA,-0.0171
10,ATTCTTCC,-0.0364
11,GCACACCA,-0.0603
12,TCGCGTCA,0.369
13,GTCCATTA,0.0942
14,CCCGGAGC,-0.113
15,ATGTCTGC,-0.0808
16,AACGACCC,-0.19
17,GCACTATA,-0.0309
18,AAGCAATC,-0.00786
19,AAAGTAGC,-0.0556
20,ACTCTGTA,0.00029
21,ATTACATG,0.245
22,ATGACGGG,0.258
23,CATGGAAG,0.0889
24,AACCCCCT,-0.32
25,CGTTATCA,0.238

row,Sequence,PBM E-score
1,CTTATGAA,0.052
2,TACAGTAA,0.137
3,GTTCGAAA,0.193
4,AAGTTTTA,0.181
5,ATAGGTTC,-0.0321
6,CTCGTTTC,0.0108
7,CGAGGCAC,-0.0663
8,CCGTAATA,0.176
9,CGAGAGAA,-0.0828
10,GGAATTAC,0.215
11,CGCTCTCA,-0.0978
12,AATAGGAT,0.234
13,TACGTTGA,0.254
14,AGAATCCT,-0.295
15,TAGTGTCA,0.17
16,AGCTTCAA,-0.0524
17,TCCCGGAA,-0.216
18,AAGACAGC,-0.0854
19,ATTTTAAC,0.0103
20,ATTCACCC,-0.0581
21,GAAATCGA,-0.0554
22,CCCTTCGA,-0.255
23,GAGGTTGC,-0.23
24,AGAACTCC,-0.142
25,GTGGGGTA,0.0304

row,Sequence,PBM E-score
1,ACTCGTTG,-0.0133
2,TGTTCGAA,0.0264
3,AACATGAA,0.0629
4,AGTATATG,0.111
5,CATTGACA,0.0835
6,CCCTCGTA,-0.18
7,CGCCCGGC,-0.202
8,AGGGCGTG,-0.115
9,GGAACCGA,-0.0692
10,CCCCCTAC,-0.415
11,CCAATGAA,-0.187
12,CGTGTATC,-0.024
13,ACCACTGA,0.0276
14,ATATAGTC,0.196
15,ATGAAATC,0.314
16,GGAGTACC,-0.32
17,ACACCCGA,-0.0457
18,GCTGAACC,-0.176
19,AAGATTCC,0.141
20,GCAAACGA,0.105
21,ACGCGAGA,-0.111
22,CTATCTTC,0.0856
23,GAGCAAAC,0.0617
24,GAAGCGGA,-0.109
25,AGGACTAT,-0.176

row,Sequence,PBM E-score
1,CCCGGCGA,-0.155
2,CCCCTAAC,-0.203
3,CATCACAG,0.253
4,ATGACCAT,0.124
5,CACGAAGG,-0.0913
6,CTGCATGA,-0.0401
7,AACGACGT,0.183
8,CCAACGCG,-0.168
9,AACGCCAT,0.118
10,ACCAACCA,-0.0567
11,CAGGGACC,-0.315
12,CGTCGTTC,0.0836
13,CATGCGAG,-0.0822
14,GCTGAGCC,0.0143
15,AAGAAAGG,0.0942
16,AGCTTCAG,-0.182
17,AGAAAATG,0.0622
18,ACAGGGAT,-0.186
19,ATCGAAGC,-0.0506
20,CACACCGA,0.0377
21,GGTTGACA,0.109
22,ACATAACT,0.17
23,CAGGTAAA,0.193
24,ACCGTATG,0.123
25,ACCAAGAT,0.071

row,Sequence,PBM E-score
1,AGTGAAGG,-0.115
2,CCACCAAA,0.0187
3,CGTTTACA,0.0632
4,CCATCTAG,-0.261
5,GCTGCTAC,-0.261
6,GATACTGA,0.101
7,CCCATTAC,-0.0421
8,GGGCCGAC,-0.198
9,ACTCGGCG,0.00811
10,CTTGCTAA,-0.132
11,CCGGGGCA,-0.192
12,CCATTCAC,-0.106
13,AAAACCCT,-0.0741
14,AGCCCCAT,-0.241
15,CCATGGGA,-0.232
16,CATGAGAA,0.194
17,CCTGGGTA,-0.301
18,CTTCCGTC,0.0409
19,AGAGCGGC,0.128
20,ATATGATC,0.234
21,ATTGCCAA,-0.137
22,GTGAAGCA,-0.0612
23,GCCAAAGA,-0.0636
24,ACAGGCAA,0.139
25,CATAGGGC,-0.169

row,Sequence,PBM E-score
1,GACGGGTA,-0.0938
2,CATTCAGG,-0.0838
3,AATGTGGA,0.0346
4,GTAGACAC,-0.0691
5,ACCGATGC,-0.0117
6,CAAGAGCG,-0.0567
7,ATGACTAA,0.18
8,CCTGGGGA,-0.402
9,CGGTGTGA,-0.00213
10,GAATGCGC,0.0486
11,CTCTATCC,-0.173
12,CTTGCTCC,-0.172
13,GTCGACTA,0.158
14,GGTTCTAC,-0.204
15,AATTCAAG,0.0712
16,ACTTGGGA,-0.308
17,GCTCAAAA,0.152
18,ATAAGATG,0.189
19,ATACCACC,-0.0616
20,CATGCTAG,-0.0106
21,CATATGTC,0.212
22,GGCTCACC,-0.346
23,TGCAACAA,0.139
24,GTATTAGA,0.173
25,GCGGAGCC,-0.159

row,Sequence,PBM E-score
1,TCAAACCA,0.137
2,CACTCTAC,0.161
3,ACCAGCAG,-0.218
4,CGGTGGTC,-0.297
5,AGCCAGGA,-0.138
6,ACATTCAT,0.155
7,ATCGGGCA,-0.207
8,CTTGTGAA,0.054
9,AACGTCAA,0.401
10,AATATGGT,0.105
11,ATAGGACC,-0.376
12,AAACGCCA,0.18
13,CGTAGTCC,-0.22
14,AAGGTGCA,0.0268
15,CCCTTATA,0.00215
16,AAGGAAAG,-0.0714
17,CTCAAGTC,-0.195
18,AACGGGGC,0.0187
19,ATTTTCTC,0.129
